Source: patent US20240042021A1 (FLAGSHIP PIONEERING INNOVATIONS VII, published 2024)

T1: human IL-10 Receptor (hIL-10R) (human, UniProt Q13651 22-578; Q08334 20-325)
T1 sequence 1: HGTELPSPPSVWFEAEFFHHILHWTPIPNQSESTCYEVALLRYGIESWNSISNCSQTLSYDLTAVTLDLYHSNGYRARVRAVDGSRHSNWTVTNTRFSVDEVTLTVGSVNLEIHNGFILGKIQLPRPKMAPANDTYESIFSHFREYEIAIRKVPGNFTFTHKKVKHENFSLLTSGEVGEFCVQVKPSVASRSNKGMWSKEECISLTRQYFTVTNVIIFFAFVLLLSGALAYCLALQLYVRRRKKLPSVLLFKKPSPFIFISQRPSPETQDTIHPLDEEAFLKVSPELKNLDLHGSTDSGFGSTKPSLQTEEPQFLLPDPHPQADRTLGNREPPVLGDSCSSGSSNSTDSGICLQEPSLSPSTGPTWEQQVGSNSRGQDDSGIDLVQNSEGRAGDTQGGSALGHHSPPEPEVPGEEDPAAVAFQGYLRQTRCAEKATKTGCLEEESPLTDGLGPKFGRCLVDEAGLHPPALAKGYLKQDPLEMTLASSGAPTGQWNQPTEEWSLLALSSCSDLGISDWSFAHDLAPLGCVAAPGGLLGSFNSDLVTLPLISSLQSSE
T1 sequence 2: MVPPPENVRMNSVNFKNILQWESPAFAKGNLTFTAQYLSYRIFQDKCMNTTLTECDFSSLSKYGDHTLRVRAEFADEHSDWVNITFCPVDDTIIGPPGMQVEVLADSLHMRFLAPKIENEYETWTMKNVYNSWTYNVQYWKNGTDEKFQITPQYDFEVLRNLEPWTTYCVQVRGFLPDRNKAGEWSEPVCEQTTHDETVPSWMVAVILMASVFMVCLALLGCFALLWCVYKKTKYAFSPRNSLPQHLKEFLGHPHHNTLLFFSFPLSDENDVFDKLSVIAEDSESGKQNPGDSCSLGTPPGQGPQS

B1: Immunomodulatory fusion protein 11 (IFP-11) (Fc fusion)
chain: [not shown - human IgG4 Fc with S228P F234A L235A (EU numbers) and a few adjoining residues]GGGGGGGSGGGGSGGGGSMRRRRSFGIVVAGAIGTLLMMAVVVFSAHEHKEVPPACDPVHGNLAGIFKELRATYASIREGLQKKDTVYYTSLFNDRVLQEMLSPMGCRVTNELMEHYLDGVLPRALHLDYDNSTLNGLHAFASSMQALYQHMLKCPALACTGKTPAWMYFLEVEHKLNPWRGTAKAAAEADLLLNYLETFLLQF
B2: Immunomodulatory fusion protein 2 (IFP-2) (Fc fusion)
chain: [not shown - human IgG4 Fc with S228P F234A L235A (EU numbers) and a few adjoining residues]GGGGGGGSGGGGSGGGGSMARRLTVASCGSVSLLAAFAAVLLIGCQLESGEALPLGSRSADSRSVDGQRVPAPQNNYPGLLRDLRLGYEGFKQKVTDSHPDETLLGSSRLAGDLKGPLRCQALSEMIQFLLQVVLPDAENSRQDLRSQFSTLGDRITGLRQQLRRDPTVFPCESRSDGVSDLRSAYTRLGSTGAEKVLSEFDIFINYIEAYVTSV
B3: Immunomodulatory fusion protein 3 (IFP-3) (Fc fusion)
chain: [not shown - human IgG4 Fc with S228P F234A L235A (EU numbers) and a few adjoining residues]GGGGGGGSGGGGSGGGGSMSNNKILVCAVIILTYTLYTDAYCVEYAESDEDRQQCSSSSNFPASLPHMLRELRAAFGKVKTFFQMKDQLNSMLLTQSLLDDFKGYLGCQALSEMIQFYLEEVMPQAENHGPDIKEHVNSLGEKLKTLRLRLRRCHRFLPCENKSKAVEQVKRVFNMLQERGVYKAMSEFDIFINYIESYMTTKM

These binders were tested against T1, human IL-10 Receptor (hIL-10R) (assay: cell-based or functional assay).

| Binder | ~Average EC50 Fold Difference Relative to Reference Fc-hIL-10 |
| --- | --- |
| B1 | > 100 fold |
| B2 | < 1 fold |
| B3 | < 1 fold |
